assay: soluble on expression in E. coli; label from the status in PepcDB or PDB records

| Sequence | soluble on expression in E. coli |
| --- | --- |
| ASPDWGYDDKNGPEQWSKLYPIANGNNQSPVDIKTSETKHDTSLKPISVSYNPATAKEIINVGHSFHVNFEDNDNRSVLKGGPFSDSYRLFQFHFHWGSTNEHGSEHTVDGVKYSAELHVAHWNSAKYSSLAEAASKADGLAVIGVLMKVGEANPKLQKVLDALQAIKTKGKRAPFTNFDPSTLLPSSLDFWTYPGSLTHPPLYESVTWIICKESISVSSEQLAQFRSLLSNVEGDNAVPMQHNNRPTQPLKGRTVRASF | soluble |
| LAERGLRKVRVGKVTSDKMDKTVVVSIETSEKHPLYKKFVKRTYKLKAHDENNECKIGDIVKVMETRPLSKEKRWRVVEIIERAR | not soluble |
| MGHHHHHHSHPMYRSRSWRRKYVRTPGGRVVVHFERKKPKIAHCAICGRPLNGIPRGRPVEMRKLPKTKKRPERPMPYLCPRCMRRVMKEQIRSQ | not soluble |
| MIPADAPPPTNIGRTNTYGGDLISGPVIPRRERRQSSSMFNISQNRELQRLPAIKDADPSERETLFIQKLRQCCVVFDFANDALSDLKFKEVKRAALNELVDHVSGAPKGSLSDAVYPEAIGMFSTNLFRPLSPPTNPIGAEFDPDEDEPTLEAAWPHLQLVYEFFLRFLECPDFQSQVAKRYIDQNFILRLLMIMDSEDPRERDFLKTTLHRIYGKFLGHRAYIRKQINNIFYSFIYETERHNGIAELLEILGSIINGFALPLKEEHKTFLLRVLLPLHKVKSLSVYHPQLAYCVVQFIEKDSSLTEPVISGMLRFWPKQHSPKEVMFLNELEEVLDVIEPNEFQKIMTPLFSQIARCVSSPHFQVAERALYYWNNEYVMSLVADNARVIIPIMFPVLFKNSKSHWNKTIHGLIYNALKMFMEMNQKLFDECSQAYQKDRVQEKTLNEEKERIWNNIEKQAMGNPQYVEVKALFARFNPDEIISSRQQNGVDENMKTSTVLSKDEILKNAVGVSSMKNDMDFGPNHKQSDFPPDEQTTRALGEYKRHDPFLKKVTSTDEQ | not soluble |
| MPITKEEKQKVMQEFARFPGDTGSTEVQVALLTLRINRLSEHLKVHKKDHHSHRGLLMMVGQRRRLLRYLQREDPERYRMLIEKLGIRG | soluble |
| MTNSKGYRRGTRDMFSRPFRKHGVIPLSTYMRVFKIGDIVDIKGHGAVQKGLPYKAYHGKTGRIFNVTQHAVGVIVNKRVRGKILAKRVNVRIEHIHHSKCREDFLRRVKENERLLKEAKEKGQWVSLKRQPEQPKKAHFVKKLEEPIALAPIPYEFIALEHHHHHH | soluble |
